Data reported in publication PMC8986152.
No constants are given. Whether binding was seen depends on the method and setting. In cells and extracts the contact can be indirect. Some entries that bind do so weakly or less than the wild type. For part of these data: Where a sequence is shown, tags or fusion partners need not be part of it.

Chains of the proteins cited; added tags and fusions are not shown.
UniProt O95069: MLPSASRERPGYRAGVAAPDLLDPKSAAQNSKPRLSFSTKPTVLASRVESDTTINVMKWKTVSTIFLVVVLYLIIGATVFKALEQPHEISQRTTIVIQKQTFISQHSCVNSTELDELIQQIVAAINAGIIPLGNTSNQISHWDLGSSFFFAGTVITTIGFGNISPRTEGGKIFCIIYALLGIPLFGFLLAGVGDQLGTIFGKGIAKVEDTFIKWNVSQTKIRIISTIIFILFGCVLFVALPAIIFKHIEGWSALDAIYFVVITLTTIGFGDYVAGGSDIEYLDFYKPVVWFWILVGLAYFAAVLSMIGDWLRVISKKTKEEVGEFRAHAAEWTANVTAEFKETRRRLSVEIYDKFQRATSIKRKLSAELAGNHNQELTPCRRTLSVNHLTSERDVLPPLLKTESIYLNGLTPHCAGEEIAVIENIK

T1: POPDC1-CFP (UniProt Q8NE79)
T1 sequence: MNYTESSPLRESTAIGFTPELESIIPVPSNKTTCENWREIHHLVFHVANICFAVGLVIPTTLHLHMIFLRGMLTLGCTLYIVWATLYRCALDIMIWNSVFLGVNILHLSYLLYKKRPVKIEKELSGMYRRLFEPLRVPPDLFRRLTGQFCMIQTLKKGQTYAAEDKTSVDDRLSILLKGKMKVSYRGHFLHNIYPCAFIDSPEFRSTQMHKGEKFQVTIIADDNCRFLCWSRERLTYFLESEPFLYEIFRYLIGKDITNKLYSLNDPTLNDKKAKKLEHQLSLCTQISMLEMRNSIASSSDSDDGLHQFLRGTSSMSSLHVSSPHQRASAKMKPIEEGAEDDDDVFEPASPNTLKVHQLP

T2: PDE4A (PDE4A5), endogenous in neonatal rat ventricular myocytes (rat (endogenous in neonatal rat ventricular myocytes)) (UniProt P54748)
T2 sequence: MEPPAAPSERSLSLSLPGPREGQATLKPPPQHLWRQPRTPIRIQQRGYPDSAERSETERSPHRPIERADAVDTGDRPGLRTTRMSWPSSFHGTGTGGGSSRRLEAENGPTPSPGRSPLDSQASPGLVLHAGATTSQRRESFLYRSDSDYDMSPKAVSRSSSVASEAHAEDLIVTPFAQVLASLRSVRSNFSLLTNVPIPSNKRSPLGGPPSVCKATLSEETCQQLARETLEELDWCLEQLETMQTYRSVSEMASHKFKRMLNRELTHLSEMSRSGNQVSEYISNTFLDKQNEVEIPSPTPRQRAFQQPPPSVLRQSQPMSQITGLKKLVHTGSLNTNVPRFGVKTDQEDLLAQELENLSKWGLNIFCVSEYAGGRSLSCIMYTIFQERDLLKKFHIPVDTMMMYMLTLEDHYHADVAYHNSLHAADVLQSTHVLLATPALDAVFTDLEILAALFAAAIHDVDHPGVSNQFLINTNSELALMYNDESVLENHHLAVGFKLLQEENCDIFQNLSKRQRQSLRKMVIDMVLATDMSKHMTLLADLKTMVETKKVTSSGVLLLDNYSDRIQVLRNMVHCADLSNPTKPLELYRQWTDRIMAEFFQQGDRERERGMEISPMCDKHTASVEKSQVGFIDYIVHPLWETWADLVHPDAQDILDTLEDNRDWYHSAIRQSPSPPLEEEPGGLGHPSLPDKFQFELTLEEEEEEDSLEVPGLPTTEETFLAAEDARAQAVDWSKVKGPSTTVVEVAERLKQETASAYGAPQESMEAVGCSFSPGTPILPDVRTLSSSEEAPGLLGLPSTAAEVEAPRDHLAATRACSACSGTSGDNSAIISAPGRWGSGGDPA

T3: VSV-PDE4A5 (murine) (UniProt O89084)
T3 sequence: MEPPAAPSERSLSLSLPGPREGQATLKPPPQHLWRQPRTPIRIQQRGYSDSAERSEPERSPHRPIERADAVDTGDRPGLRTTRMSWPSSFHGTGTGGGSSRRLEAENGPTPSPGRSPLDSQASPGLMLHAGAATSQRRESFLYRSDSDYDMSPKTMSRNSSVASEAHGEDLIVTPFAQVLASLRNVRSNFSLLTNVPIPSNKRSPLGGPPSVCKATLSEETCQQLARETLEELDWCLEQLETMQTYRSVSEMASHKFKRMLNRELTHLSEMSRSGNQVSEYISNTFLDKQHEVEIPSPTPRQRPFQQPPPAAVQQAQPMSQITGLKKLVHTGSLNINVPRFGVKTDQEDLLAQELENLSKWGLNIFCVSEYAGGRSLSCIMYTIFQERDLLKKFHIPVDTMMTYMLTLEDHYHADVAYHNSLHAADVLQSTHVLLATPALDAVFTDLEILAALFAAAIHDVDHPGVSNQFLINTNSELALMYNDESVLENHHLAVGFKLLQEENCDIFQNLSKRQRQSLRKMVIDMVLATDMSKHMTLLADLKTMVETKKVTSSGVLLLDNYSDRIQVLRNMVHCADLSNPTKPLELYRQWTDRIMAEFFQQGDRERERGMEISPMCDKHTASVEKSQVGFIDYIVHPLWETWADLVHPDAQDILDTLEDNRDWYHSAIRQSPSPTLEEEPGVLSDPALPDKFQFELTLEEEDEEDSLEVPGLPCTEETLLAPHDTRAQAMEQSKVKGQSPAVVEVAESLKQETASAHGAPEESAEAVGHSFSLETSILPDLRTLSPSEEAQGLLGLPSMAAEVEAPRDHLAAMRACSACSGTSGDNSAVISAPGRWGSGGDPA

B1: POPDC1-PDE4 disruptor peptide (T154-K178 of POPDC1 conjugated to a stearate group) (peptide)
peptide: TLKKGQTYAAEDKTSVDDRLSILLK
modifications: conjugated to a stearate group (position not given)

Key:
POPDC1-CFP = molecular target: T1, POPDC1-CFP; test: FRET or BRET; bi-molecular FRET sensor POPDC1-CFP / YFP-TREK1 in live HEK293 cells stably expressing PDE4A4; FRET saline pH 7.4; untreated or with 25 μM forskolin, 10 μM rolipram, 10 μM scrambled or disruptor peptide
[1] = molecular target: T2, PDE4A (PDE4A5), endogenous in neonatal rat ventricular myocytes (rat (endogenous in neonatal rat ventricular myocytes)); test: proximity ligation; competition: NRVMs, endogenous proteins, treated with 10 μM stearate-conjugated disruptor peptide for two hours; the peptide as competitor; only the binder purified
VSV-PDE4A5 (murine) = molecular target: T3, VSV-PDE4A5 (murine); test: co-IP; competition: HEK293 transfected with POPDC1-myc and PDE4A5-VSV, cells treated with 10 μM stearate-conjugated disruptor peptide; myc-conjugated resin; the peptide as competitor; only the binder purified

| Molecule | binding (POPDC1-CFP) | binding [1] | binding (VSV-PDE4A5 (murine)) |
| --- | --- | --- | --- |
| YFP-TREK1 (from UniProt O95069 1-426) | binds |  |  |
| B1 |  | binds | binds |
